Assay results published in paper PMC12040169 (PLOS Biology, 2025).
The list shows a part of the results.

Each compound was assayed on T1, C. trachomatis L2/434/Bu expressing GFP (CTL2-GFP). Settings: total inclusion area; 28.5 h, 10 µM; inhibitor.
T1 construct: L2/434/Bu GFP intracellular growth in HeLa cells
Design: species or system HeLa; C. trachomatis total inclusion area by high-content imaging, normalised to DMSO
Procedure, shortened: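 Imaging read-out: GFP inclusions and Hoechst nuclei captured by high-content imaging after fixation. Inclusion area/number = chlamydial growth; nuclei count = host cell viability. MIC calculated per earlier method.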

Compound	% of control remaining
Nc1nc(-c2ccccc2)c(C(=O)Nc2ccccc2)s1 [CBK058068]	60.444
COc1ccc2c(c1)CCc1sc(NS(=O)(=O)c3cccc(Cl)c3C)nc1-2 [CBK200033]	82.6259
CC(C)c1cc(C(=O)N(Cc2ccccn2)CC2CCCO2)on1 (stereo not shown) [CBK306579]	104.86
S=C(NCc1ccco1)Nc1nn(Cc2ccc(Cl)cc2Cl)cc1Cl [CBK267021]	102.922
COc1ccc(-n2nc(C)c3onc(C)c3c2=O)cc1 [CBK000853]	85.9007
Cc1cc(C)c2c(c1)-c1c(ssc1=S)C(C)(C)N2C(=O)CSc1nncn1C [CBK263035]	84.404
CCNC(=O)N[C@H]1[C@H](O)[C@@H](N(CC)CC)[C@@H]2OC[C@H]1O2 [CBK288816]	102.685
COc1ccc(-c2nc(CCN)n3ccccc23)cc1 [CBK035583]	101.044
O=S(=O)(c1ccc(F)cc1)N1CCCC1c1cccc(Cc2cccc(F)c2)n1 (stereo not shown) [CBK286209]	98.9588
C/C(=N\NC(=O)c1cccc(Cl)c1)c1ccccc1O [CBK261665]	48.5997
COc1cc(CN2CCN(C(=O)c3cccc(F)c3)CC2)cc(OC)c1O [CBK074633]	67.4281
Cc1onc(-c2ccccc2Cl)c1C(=O)Nc1ccc(S(=O)(=O)N2CCC(C)CC2)cc1 [CBK265463]	75.6885
CCN1CCOC(CNCc2ccc(OCC(N)=O)cc2)C1 (stereo not shown) [CBK305108]	77.7368
CC(C)C(=O)Nc1cccc(NC(=O)COc2ccc(Br)cc2)c1 [CBK265211]	54.6411
Cc1csc(NC(=O)CSc2ccc3nnc(-c4ccccc4)n3n2)n1 [CBK287517]	113.022
CCn1nc(C)c(-c2cncn2CCCOc2cccc(C)c2)c1C [CBK281997]	117.386
Cc1cc(-c2cn3ccnc3c(NC3CC3)n2)cc(C)c1O [CBK066747]	68.8554
O=C(O)c1cc(S(=O)(=O)Nc2ccc(F)cc2)c(Cl)cc1Cl [CBK113685]	84.7623
CN1CCN(CCOC(=O)N2CCSCC2)CC1 [CBK200288]	94.2134
CCN1CCN(C(=O)c2ccc3nc(-c4ccccc4)c(-c4ccccc4)nc3c2)CC1 [CBK269090]	44.6826

Compound	% of control remaining
Cc1csc(Sc2nc3ccccc3nc2C(F)(F)F)n1 [CBK093775]	97.8438
O=C(CN1CCOCC1)Nc1c2c(nc3ccccc13)N(c1ccccc1)CC2 [CBK111136G]	84.9377
COc1ccc(Cl)cc1C(=O)O/N=C(\N)Cc1cccc2ccccc12 [CBK266275]	97.0877
NC1=NNC2=C(c3ccc(F)cc3)NNN12 [CBK093659]	97.4454
O=C(CCNc1n[nH]c(=O)[nH]c1=O)N/N=C\c1ccccc1F [CBK263093]	102.233
Cc1ccc(-c2csc3ncnc(NCCCc4n[nH]c(N)c4C#N)c23)cc1 [CBK297100]	89.0018
CC(OC(=O)c1ccc(O)cc1)C(=O)Nc1ccc(Cl)c(Cl)c1 (stereo not shown) [CBK264281]	83.0147
Cc1ccc(S(=O)(=O)NC2c3cccc4cccc(c34)C2Sc2nnc(N)s2)cc1 (stereo not shown) [CBK265835]	118.322
CS(=O)(=O)N1CCc2c([nH]c3ccccc23)C12CCN(Cc1ccccc1)C2 (stereo not shown) [CBK059460]	97.8542
CCCc1ccc(S(=O)(=O)Nc2ccc(C(=O)N(CC)CC)cc2)cc1 [CBK034403]	85.3267
CN(C)CCCNc1oc(/C=C/c2cccs2)nc1C#N [CBK269317]	100.5
CC(=O)NC[C@H]1CN(c2ccc3c(c2)CCSC3)C(=O)O1 [CBK018505]	3.2688
COc1cccc(CN2CCN(CCc3ccccc3)CC2)c1 [CBK126454]	97.5355
Cc1cccc(OCC2CCCN(C(=O)NCCc3cnn(C)c3)C2)c1 (stereo not shown) [CBK307358]	49.631
Cc1cccc(Nc2nc(N)nc(CSc3nccn3C)n2)c1 [CBK266105]	84.377
CCn1cnnc1SCC(=O)Nc1ccc(CN2CCOCC2)cc1 [CBK305072]	49.9369
O=c1[nH]nc2c(Sc3cccc(F)c3)nccn12 [CBK288508]	29.732
COc1ccccc1NC(=O)N1C[C@@H]2C[C@H](C1)c1c(-c3cccs3)ccc(=O)n1C2 [CBK289191]	72.3683
CN(C)C(=S)Oc1ccc2[nH]c3c(c2c1)CCNC31CCN(CCOc2ccccc2)C1 (stereo not shown) [CBK105748]	63.9944
CSc1nc2ccc(S(=O)(=O)N3CCCC3)cc2s1 [CBK268400]	90.3378
